In all, about 48,000 compounds went through this assay and about 450 (0.94%) were called active. Not shown: some 19% with an inconclusive outcome. Calls come from the whole dose curve; as a rule, active = well fitted inhibition curve with a large enough effect; inconclusive = small, poorly fitted or top-dose-only effect; inactive = no such curve, though single readings can be large or run the other way. Some of the results follow.
assay: Primary qHTS for Identification of Small Molecule Inhibitors of Huntingtin Promoter Activity; conditions: HEK293 HTT promoter firefly luciferase reporter (activity 0% = vehicle and -100% = no light), 24 h; series mostly up to 57.5 µM; activity change, negative = inhibition: at the top concentration; note: nearly all actives have a fitted effect of over 50% in size
Outline: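 Firefly luciferase readout (Dual-Glo, 10 min RT) after 24 h, 37 °C compound exposure (final up to 57.5 uM) of HEK293 reporter cells cultured 24 h beforehand; PTC124 at 50 uM final as control inhibitor; activity scaled vehicle 0%, zero RLU -100%.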
Potency is the fitted concentration of half-maximal effect.

Compound | activity change, negative = inhibition | Potency
COc1cccc(NC(=O)CSc2nc3ccc(NC(=O)c4ccco4)cc3s2)c1 | inactive: -6.61% | 
CCc1nn(CC(=O)NCCCOC)c(=O)c2cc3occc3n12 | inactive: -12.4% | 
CCCN(CCC)CCCNC(=O)Cn1cnc2onc(-c3ccc(F)cc3)c2c1=O | inactive: -6.34% | 
O=C(Cn1cnc2c(nc3n2CCCCC3)c1=O)Nc1ccc(F)cc1 | inactive: -8.09% | 
O=C(CN1C(=O)C(c2ccc(F)cc2)=NC12CCCCCC2)Nc1ccc(F)c(Cl)c1 | inactive: -2.45% | 
COc1ccccc1NC(=O)Cn1c(=O)n(Cc2ccco2)c(=O)c2oc3ccccc3c21 | inactive: -11% | 
CCC(=O)NC1CC(=O)N(c2ccc3c(c2)OCCO3)C1 (stereo not given) | inactive: 5.45% | 
Cc1ccc2c(=O)cc(C(=O)Nc3c(C)n(C)n(-c4ccccc4)c3=O)oc2c1C | inactive: -6.96% [at 11.5 µM] | 
COC(=O)C(C)Sc1nnc2cc(C)c3cc(C)cc(C)c3n12 (stereo not given) | inactive: -23.6% | 
CN(C(=O)c1nc(-c2cccc(F)c2)n2c1CCCCC2)c1ccccc1F | inactive: -13.1% | 
COc1cc(C2c3c(-c4ccccc4O)n[nH]c3C(=O)N2Cc2ccncc2)ccc1O (stereo not given) | inactive: -8.62% | 
COc1c(C)c2c(c(O)c1CC=C(C)CCC(=O)OCCN1CCOCC1)C(=O)OC2 | inactive: -11.8% | 
Cc1ccccc1NC(=O)c1ccccc1NC(=O)c1ccccc1Cl | inactive: 12.8% | 
CCc1ccc(NC(=O)CSc2ccc3nnc(CCNS(=O)(=O)c4ccc(OC)cc4)n3n2)cc1 | inactive: -0.508% | 
CCc1ccc(NC(=O)C2CCN(c3cc(C)nc4c(-c5ccc(Cl)cc5)c(C)nn34)CC2)cc1 | inactive: 14.5% | 
Cc1nc2ccc(S(=O)(=O)CCC(=O)Nc3ccc(F)cc3C)cc2s1 | inactive: -11.8% | 
CC(C)c1ccc(NC(=O)CCCc2nc(-c3ccc(Cl)cc3)no2)cc1 | inactive: -0.0594% | 
COc1cc(Cl)c(NC(=O)C2CCN(S(=O)(=O)c3c(C)noc3/C=C/c3ccccc3F)CC2)c(OC)c1 | inactive: -19.1% | 
Cc1ccc(C2=Nc3ccccc3NC(c3ccncc3)=N2)cc1 | inactive: -23.6% | 
CCOc1ccc(-c2nc3c(C#N)c[nH]n3c2NC2CCCC2)cc1 | inactive: 3.76% | 
CNS(=O)(=O)c1cn(CC(=O)Nc2ccc(C)cc2C)cc1S(=O)(=O)NC | inactive: 3.06% | 
CCOC(=O)c1cc(-c2ccc(C)cc2)nn1Cc1ccccc1 | inactive: 51.1% | 
Cc1ccc(-c2cn3c(n2)sc2cc(C(=O)NCCCc4ccccc4)ccc23)cc1 | inactive: 12.5% | 
CCc1ccccc1NC(=O)C1CCCN(S(=O)(=O)c2cccc3nsnc23)C1 (stereo not given) | inactive: -8.6% | 

Compound | activity change, negative = inhibition | Potency
COc1ccc(CCNC(=O)CCc2c(C)nc3c(c(C)nn3-c3ccc(C)cc3)c2C)c(OC)c1 | inactive: -9.9% | 
Cc1ccc(-n2c3c(c(=O)[nH]c2=O)C(NC(=O)c2ccccc2F)(C(F)(F)F)C(=O)N3)cc1C (stereo not given) | inactive: -3.53% | 
CCN(CCCNC(=O)c1cc2c(=O)n(CC)c3ccccc3c2s1)c1cccc(C)c1 | inactive: 12.5% | 
Cc1ccccc1-c1nc(CS(=O)(=O)CC(=O)NC(C)c2ccccc2)c(C)o1 (stereo not given) | inactive: -27.7% | 
CCc1ccc(N2CCn3c2nc2c3c(=O)n(Cc3ccc(F)cc3)c(=O)n2C)cc1 | inactive: 0.314% | 
COc1cc(-c2noc(C3CC(=O)N(c4ccc5c(c4)OCCO5)C3)n2)cc(OC)c1OC (stereo not given) | inactive: -32.7% | 
O=C(Nc1cc(F)ccc1F)C1COc2ccccc2C1 (stereo not given) | inactive: -3.03% | 
CCN(CC)CC(=O)Nc1c(C)cccc1C | inactive: -6.31% | 
Cc1ccc(CNc2ccc(-c3nc(-c4ccco4)no3)cc2[N+](=O)[O-])cc1 | inactive: -6.97% | 
COc1ccc(C(=O)Nc2ccc(-n3nncc3-c3ccc(OC)c(OC)c3)cc2)cc1 | inactive: 0.41% | 
Cc1ccc(S(=O)(=O)c2nc(-c3ccccc3)oc2N2CCN(c3ccccc3)CC2)cc1 | inactive: -11.6% | 
Cc1ccc(-c2cc(C(=O)O)n(Cc3ccccc3)n2)cc1 | inactive: 36.1% | 
Cc1nn(CC(=O)NCCc2ccccc2Cl)c(=O)c2nn(-c3ccccc3)c(C)c12 | inactive: -23.7% | 
CCOc1ccc(CNC(=O)Cn2nc(C)c3nn(-c4ccc(Cl)cc4)c(C)c3c2=O)cc1OC | inactive: -4.23% | 
CCC(C)NC(=O)c1sc2nc(C)c(C(=O)Nc3ccc(C)cc3C)c(-c3ccc(Cl)cc3)c2c1N (stereo not given) | inactive: -7.93% | 
CC(=O)OCC(=O)[C@@]12OC(C)(C)O[C@@H]1C[C@H]1[C@@H]3C[C@H](F)C4=CC(=O)C=C[C@]4(C)[C@@]3(F)[C@@H](O)C[C@@]12C | inactive: 7% | 
COc1ccc(CNCc2c(C(=O)O)c(C)n(Cc3ccc(Cl)cc3)c2C)c(OC)c1 | inactive: -15.4% | 
c1ccc2c(CC3=NCCN3)cccc2c1 | inactive: -2.41% | 
Cc1ccc2c(c1)c1c(c(=O)n(-c3ccccc3C)c(=O)n1CC(=O)NCCC1=CCCCC1)n2C | inactive: -7.63% | 
CC(=O)c1cc(-c2ccc(F)cc2)n(CCC(=O)Nc2nc3c(C)cccc3s2)c1C | inactive: -7.86% | 
Cc1ccc(Cc2nc3ccccc3nc2SCC(=O)Nc2cccc(C(F)(F)F)c2)cc1 | inactive: -28.1% | 
O=C(CN1CCSc2ccccc21)N1CCN(c2cccc(Cl)c2)CC1 | inactive: -33.2% | 
COC(=O)c1cnn(-c2ccc(C(=O)Nc3ccc(C(C)=O)cc3)cc2)c1N | inactive: -1.34% | 
CC(C)(C)c1ccc(S(=O)(=O)NCc2nc3cccnc3n2Cc2ccccc2Cl)cc1 | inactive: -21.8% | 

Compound | activity change, negative = inhibition | Potency
CC(C)c1ccccc1NC(=O)CN1C(=O)c2cccc3cccc1c23 | inactive: -29.2% | 
CCC(=O)Nc1ccc2nc(SCc3ccc(C)cc3)sc2c1 | inactive: -3.68% | 
O=C(CSc1nc(-c2ccccc2)[nH]c1-c1ccccc1)Nc1ccc2c(c1)OCCO2 | inactive: -29.4% | 
CCCSCCCNC(=O)c1ccc2c(c1)nc1n2CCCCC1 | inactive: 21.2% | 
Cc1ccc(Nc2cc(C)c(C#N)c3nc4ccccc4n23)cc1Cl | inactive: -4.74% | 
CC(C)c1cc(-c2nc(-c3ccccc3)no2)n[nH]1 | inactive: 29.7% | 
COc1ccc(S(=O)(=O)N2CCN(Cc3ccc4c(c3)OCO4)CC2)cc1OC | inactive: -26.9% | 
COCCNC(=O)c1nn(-c2ccc(Cl)cc2)nc1CO | inactive: 8.58% | 
COc1ccc(CNC(=O)c2cc3c(=O)n(C)c4ccccc4c3n2C)cc1 | inactive: -1.13% | 
Cn1cnc(S(=O)(=O)N2CCC(C(=O)NCc3ccc(Cl)cc3)CC2)c1 | inactive: -14.8% | 
O=C(CSc1ccccc1)NCc1ccc2c(c1)CCN2C(=O)c1ccc(F)cc1 | inactive: -10.4% | 
CCOc1cc(C2CC(=O)Nc3nc(SCc4ccccc4)[nH]c(=O)c32)ccc1O (stereo not given) | inactive: -26.3% | 
O=C(Nc1cccc2cccnc12)c1ccc(F)cc1 | inactive: 65% | 
CCc1ccc2oc(-c3ccc(NC(=O)c4cc(OC)c(OC)c(OC)c4)cc3)nc2c1 | inactive: -7.91% [at 11.5 µM] | 
CCOC(=O)c1ccc(N2C(=O)c3[nH]nc(-c4ccc(OCC)cc4)c3C2c2ccc(OC)cc2OC)cc1 (stereo not given) | inactive: -25.3% | 
CCc1ccc(CNC(=O)CCCN2C(=O)c3cccnc3Oc3ccc(Cl)cc32)cc1 | inactive: -11.9% | 
Cc1ccccc1-c1nnc(C2CCN(S(=O)(=O)c3ccc(Cl)cc3)CC2)o1 |  | active: 15.8 µM
O=C(COc1ccccc1)Nc1nnc(S(=O)(=O)N2CCCCCC2)s1 | inactive: -23.2% | 
COc1cccc(N2CCN(C(=O)CCc3c(C)nc4c(c3C)c(=O)n(C)c(=O)n4C)CC2)c1 | inactive: -6.27% | 
CCC(C)NC(=O)c1ccc2c(c1)N(Cc1ccccc1)C(=O)c1ccccc1S2 (stereo not given) | inactive: -21.2% | 
CCN(CC)c1cc2c(cc1F)c(=O)c(S(=O)(=O)c1ccc(OC)cc1)cn2CC | inactive: -19.5% | 
COc1ccc(-c2nc(CN3CCC(C(=O)NCc4ccccc4)CC3)c(C)o2)cc1OC | inactive: 6% | 
Cn1nnc2c(N3CCN(c4ccccc4Cl)CC3)ncnc21 | inactive: -17.8% | 
COc1ccc(-c2c3c(=O)n(C)c(=O)n(C)c3c3c(C)nc4ccccc4n23)cc1 | inactive: -13.8% | 

Compound | activity change, negative = inhibition | Potency
CCOC(=O)Cn1c(=O)n(-c2ccccc2OC)c2nc(-c3cccc(F)c3)nc(C(N)=O)c21 | inactive: -7.37% | 
Cc1ccc(-c2nnc(SCc3cccc(C#N)c3)o2)cc1 | inactive: 16.1% | 
CCOC(=O)c1ccccc1NC(=O)N(C(C)C)C1CCN(C(C)=O)CC1 | inactive: -14.5% | 
CCOC(=O)c1cccnc1SCC(=O)Nc1ccc(C)cc1C | inactive: -19.5% | 
Cc1ccc2c(c1)-c1c(cnc3cc(-c4ccccc4)nn13)CO2 | inactive: 7.21% | 
O=C(NCCc1ccccc1)c1nnc(Cc2cccc(F)c2)o1 | inactive: -24.7% | 
CN(C)CCNC(=O)c1ccc2c(=O)n3c(nc2c1)CCCCC3 | inactive: -1.29% | 
O=C(CCS(=O)(=O)c1cccs1)Nc1ccc(C(=O)Nc2ccccc2F)cc1 | inactive: 23% | 
Cc1ccc(C)c(Cn2cc(S(=O)(=O)c3ccc(Cl)cc3)c(=O)c3cc(F)ccc32)c1 | inactive: -9.33% | 
CCc1ccc(NC(=O)c2ccc3[nH]c(C)c(C)c3c2)cc1 | inactive: 35.1% | 
CCN(Cc1ccccc1)C(=O)CN(c1ccc(OC)cc1)S(=O)(=O)c1c(C)nn(C)c1C | inactive: -13.7% | 
CCOc1ccc(NC(=O)Cn2c(=O)n(-c3cccc(OC)c3)c(=O)c3c4c(sc32)CCCC4)cc1 | inactive: 0% | 
CCCCN(CCCC)CCNC(=O)c1cn(CC)c2ccc(S(=O)(=O)N(C)C3CCCCC3)cc2c1=O | inactive: -1.71% | 
COC(=O)N[C@H](C(=O)N1CCC[C@@H]1c1ncc(-c2ccc(-c3ccc(-c4cnc([C@@H]5CCCN5C(=O)[C@@H](NC(=O)OC)C(C)C)[nH]4)cc3)cc2)[nH]1)C(C)C | inactive: -14.5% | 
CCOC(=O)C1CCN(C(=O)Cn2c(=O)oc3cc(S(=O)(=O)N4CCC(C)CC4)ccc32)CC1 | inactive: -15% | 
Cc1ccccc1NC(=O)CSc1nc2c(c(=O)n(C)c(=O)n2C)n1Cc1ccccc1F | inactive: 9.57% | 
COCCNC(=O)Cn1c(=O)n(CCCCCC(=O)NCc2ccc3c(c2)OCO3)c(=O)c2sccc21 | inactive: -8.14% | 
COc1ccc(-c2nc(CSc3nncn4c3cc3sccc34)c(C)o2)cc1OC | inactive: 5.24% | 
O=C(CN1C(=O)CCc2cc(S(=O)(=O)N3CCOCC3)ccc21)NCc1ccccc1 | inactive: -24.4% | 
CCNc1nc(OC)nc(Oc2ccc(=O)[nH]n2)n1 | inactive: -2.29% | 
CN1[C@@H]2CC[C@H]1CC(OC(=O)C(O)c1ccccc1)C2 (stereo not given in full) | inactive: 4.43% | 
CCCNC(=O)c1ccc2nc(CCc3ccccc3)oc2c1 | inactive: 9.95% | 
Cc1cc(C)cc(S(=O)(=O)c2cn(C)c3cc(N4CCCC4)c(F)cc3c2=O)c1 | inactive: -11.4% | 
